88 compounds from publication PMC4336329 (PLoS ONE, 2015) can be followed below.

The structures appear in SMILES notation. About 2,200 (0.71%) of roughly 310,000 compounds showed an effect of 50% or more. Effects have a minus sign here. The list shows a part of the results.

Sequence of human ether-à-go-go-related gene (hERG) potassium channel (Q12809 whole entry, looked up): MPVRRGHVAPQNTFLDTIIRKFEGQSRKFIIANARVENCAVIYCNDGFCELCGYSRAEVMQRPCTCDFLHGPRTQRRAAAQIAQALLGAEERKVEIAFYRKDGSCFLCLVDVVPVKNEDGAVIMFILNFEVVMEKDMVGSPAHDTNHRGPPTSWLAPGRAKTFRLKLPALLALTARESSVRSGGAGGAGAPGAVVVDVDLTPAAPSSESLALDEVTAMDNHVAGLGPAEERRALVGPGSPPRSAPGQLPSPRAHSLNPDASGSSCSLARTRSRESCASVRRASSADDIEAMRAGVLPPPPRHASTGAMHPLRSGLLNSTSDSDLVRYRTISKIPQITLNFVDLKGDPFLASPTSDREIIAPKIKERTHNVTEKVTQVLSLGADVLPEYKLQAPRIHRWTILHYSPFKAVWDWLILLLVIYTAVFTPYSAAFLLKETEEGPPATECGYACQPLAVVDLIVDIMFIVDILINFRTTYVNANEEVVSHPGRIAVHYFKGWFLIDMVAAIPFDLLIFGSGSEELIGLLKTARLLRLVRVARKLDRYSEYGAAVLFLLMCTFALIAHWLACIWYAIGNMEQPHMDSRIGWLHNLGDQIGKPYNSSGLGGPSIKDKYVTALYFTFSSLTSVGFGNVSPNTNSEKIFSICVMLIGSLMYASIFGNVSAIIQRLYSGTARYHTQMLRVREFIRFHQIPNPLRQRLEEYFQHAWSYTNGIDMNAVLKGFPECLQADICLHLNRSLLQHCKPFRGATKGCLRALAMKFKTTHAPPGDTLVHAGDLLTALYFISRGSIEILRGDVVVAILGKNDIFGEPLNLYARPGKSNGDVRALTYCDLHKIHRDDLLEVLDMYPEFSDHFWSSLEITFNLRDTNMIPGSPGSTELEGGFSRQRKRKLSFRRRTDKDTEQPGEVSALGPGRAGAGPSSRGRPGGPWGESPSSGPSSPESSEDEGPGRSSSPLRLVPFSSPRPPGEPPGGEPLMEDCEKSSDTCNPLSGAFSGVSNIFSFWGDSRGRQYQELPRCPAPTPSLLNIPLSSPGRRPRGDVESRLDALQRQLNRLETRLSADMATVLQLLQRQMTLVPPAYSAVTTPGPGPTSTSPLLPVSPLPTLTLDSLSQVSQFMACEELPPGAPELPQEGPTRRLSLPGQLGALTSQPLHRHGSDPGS

The assay has as its target human ether-à-go-go-related gene (hERG) potassium channel (human, UniProt Q12809). Nature of the assay: primary screen, population patch clamp on CHO cells stably expressing hERG.
As to `O=C(Nc1c2c(nn1-c1ccc(F)cc1)CS(=O)(=O)C2)C1CCCC1`, the “hERG current change (%, negative = inhibition) at 1uM” value is given as 18.7%.

For `Cc1nn(Cc2ccc(C(=O)Nc3nccs3)cc2)c(C)c1Cl`, the “hERG current change (%, negative = inhibition) at 1uM” value amounted to 19.6%.

In the case of `CCN(c1ccccc1)S(=O)(=O)c1ccc(Cl)c(C(=O)O)c1`, the “hERG current change (%, negative = inhibition) at 1uM” value is given as 1.2%. For `CC(C(=O)Nc1ccc(Br)cc1)N(C)CC(=O)NCc1ccco1` (stereo not shown) the value was -10.3%; for `CCN(C(=O)CSc1nnc(Nc2cccc(C)c2C)s1)C1CCS(=O)(=O)C1` (stereo not shown), -5.06%; for `CCCc1nc2ccccc2n1CCOC`, 17.6%.

As to `COC(=O)CN1C(=S)N(c2ccc(F)cc2)C(=O)C1CC(=O)Nc1ccc(OC)cc1` (stereo not shown), the “hERG current change (%, negative = inhibition) at 1uM” value was 7.75%. For `O=C(Nc1cccc(-c2cnc3ccccc3n2)c1)c1ccc(Cl)cc1` the value was 8.28%; for `Cc1ccc(C(=O)CN(C(=O)c2ccc(Cl)c(Cl)c2)N2C(=O)C3CCCCC3C2=O)cc1C` (stereo not shown), 4.65%. The figure for `O=C1Cn2c(nc3ccccc32)N1c1cccc(C(F)(F)F)c1` is -11.6%; for `Oc1oc(-c2ccco2)nc1C=Nc1ccccc1` it is -3.71%. Regarding `Cc1ccccc1C(=O)Nc1cccc(NC(=O)c2ccc(F)cc2)c1`, the “hERG current change (%, negative = inhibition) at 1uM” value was 8.07%.

For `CCOc1ccccc1N(CC(=O)N/N=C/c1cc(Br)ccc1OC)S(C)(=O)=O`, the “hERG current change (%, negative = inhibition) at 1uM” value came to 15.8%. For `CN(Cc1ccccc1)S(=O)(=O)c1ccc(Cl)c(C(=O)OCC(N)=O)c1` the value was 8.64%. The figure for `O=C1c2[nH]nc(-c3ccccc3O)c2C(c2ccccc2F)N1Cc1ccco1` (stereo not shown) is 10.2%. For `O=C(Nc1ccc2oc(-c3ccc4ccccc4c3)nc2c1)c1cccs1` the value was -8%; for `COc1cc(-c2nc3cnccn3c2Nc2ccc3c(c2)OCCO3)ccc1O`, 4.76%; for `CNC(=S)N/N=C1\C2CN3CCN(C2)CC1(c1ccccc1)C3`, 8.25%. Turning to `O=C(Cn1c(=O)oc2ccccc21)Nc1ccccc1N1CCOCC1`, the “hERG current change (%, negative = inhibition) at 1uM” value stood at 16.9%. Turning to `CC1CCN(c2nc(/C=C/c3ccccc3)nc3ccccc23)CC1`, the “hERG current change (%, negative = inhibition) at 1uM” value was 4.11%. For `CC(=O)c1cc2c(cc1NC(=O)CN1CCN(c3cccc(C(F)(F)F)c3)CC1)OCO2.Cl` the value was 9.11%; for `N#C/C(=C\c1ccc2c(c1)OCO2)C(N)=S`, 12.1%.

In the case of `Cc1ccc(OCc2nc(-c3cccs3)no2)c([N+](=O)[O-])c1`, the “hERG current change (%, negative = inhibition) at 1uM” value was determined as 9.49%. Take `CC(C)(C)C(=O)NC1CC2CCCC(C1)N2C(=O)Nc1cccc(Cl)c1` (stereo not shown): the “hERG current change (%, negative = inhibition) at 1uM” value was 15.7%. For the compound `CCOC(=O)c1ccccc1NC(=O)CSc1nc2ccccc2n1CC(=O)N1CCCC1`, the “hERG current change (%, negative = inhibition) at 1uM” value is recorded as -8.76%. For `O=C(NCc1ccc(Cl)cc1)c1cc2c(s1)CS(=O)(=O)C2` the value was 0.729%. The figure for `CCc1ccc(OCCNC(=O)OCc2ccccc2)cc1` is -1.74%; for `COc1ccc(N(CC(=O)N2c3ccccc3CC2C)S(=O)(=O)c2c(C)nn(C)c2C)cc1` (stereo not shown) it is 9.21%; for `CCOc1cc([N+](=O)[O-])c2nc(N)sc2c1` it is 8.66%. The figure for `COC(=O)[C@H](Cc1ccccc1)NC(=O)c1ccc2ccccc2n1` is 0.182%; for `CN(C(=O)COC(=O)c1nc(-c2ccccc2)n(-c2ccccc2)n1)C1CCS(=O)(=O)C1` (stereo not shown) it is 13.3%. As to `CCOC(=O)Cc1[nH]nc2c1C(c1ccoc1)C(C#N)=C(N)O2` (stereo not shown), the “hERG current change (%, negative = inhibition) at 1uM” value is given as -5.52%. As to `CC[n+]1c(C)cc(C)n1-c1ccccc1.[I-]`, the “hERG current change (%, negative = inhibition) at 1uM” value is given as -5.8%.

For the compound `O=C(CSc1nnc(-c2ccccc2)n1-c1ccc(Cl)cc1)N/N=C/c1ccccc1C(=O)O`, the “hERG current change (%, negative = inhibition) at 1uM” value is given as 10.2%.

As to `COc1ccc(CCN2CNc3c(c(=O)n(C)c(=O)n3C)C2)cc1OC`, the “hERG current change (%, negative = inhibition) at 1uM” value came out at 15.4%.

With `Cc1n[nH]c(=O)c2c(NC(=O)CSc3cc(Cl)ccc3Cl)oc(C)c12`, the “hERG current change (%, negative = inhibition) at 1uM” value turned out to be 3.6%. For `O=C(NCCN1CCOCC1)/C(=C\c1ccccc1Cl)NC(=O)c1ccccc1` the value was 3.33%. In the case of `Cc1cc(C(=O)CN2C(=O)c3ccccc3S2(=O)=O)c(C)n1C(C)C`, the “hERG current change (%, negative = inhibition) at 1uM” value was 4.51%.

In the case of `O=C(NC1CCCCCCC1)C1CCN(S(=O)(=O)N2CCCC2)CC1`, the “hERG current change (%, negative = inhibition) at 1uM” value was 7.12%.

`Cc1ccc(C)c(OCc2nc3ccccc3[nH]2)c1`: the “hERG current change (%, negative = inhibition) at 1uM” value is given as 5.22%. The figure for `CNC(=O)OCCc1nccn1C` is 4.15%.

Regarding `COc1cc(/C=C(\C#N)C(=O)NCc2ccccc2)ccc1OCc1ccc(C(=O)O)cc1`, the “hERG current change (%, negative = inhibition) at 1uM” value is reported as -3.89%. For `CCOc1ccc(N2C(=O)C3=C(C(c4ccc(Cl)cc4)=NCCN3)C2c2cccnc2)cc1` (stereo not shown) the value was 5.76%. For `CCN(Cc1ccccc1)S(=O)(=O)c1ccc(OC)cc1` the value was 1.72%; for `COc1ccc(-c2cn3c(C)c(C(=O)Nc4cccc(NC(C)=O)c4)sc3n2)cc1`, 6.17%; for `Cc1ccc2cc(/C=N/Nc3ccc(C(=O)O)cc3)c(Cl)nc2c1`, 10.5%. Turning to `CC(=O)c1c(C)[nH]c(C(=O)OCC(=O)Nc2cccc(S(=O)(=O)N3CCCC3)c2)c1C`, the “hERG current change (%, negative = inhibition) at 1uM” value was -1.02%.

As to `Cc1cc(C(=O)OCCN2C(=O)c3ccccc3C2=O)c2ccccc2n1`, the “hERG current change (%, negative = inhibition) at 1uM” value was 6.92%.

In the case of `C=CCC1(CC=C)CCCN1C(=O)c1cc(COc2cccc(C(F)(F)F)c2)on1`, the “hERG current change (%, negative = inhibition) at 1uM” value worked out at 24.8%. The figure for `CCc1ccc(NC(=O)Cn2nc(C(=O)O)c3ccccc3c2=O)cc1` is 18.5%; for `Cc1ccc(NC(=O)CC2SCCNC2=O)cc1Cl` (stereo not shown) it is -21.8%; for `Br.CCn1c2c(c(=N)c3c1CCC3)CCC2` it is 6.51%. The figure for `CC(C)OC(=O)c1c(NC(=O)c2ccco2)sc2c1CCCCC2` is 9.25%; for `COc1cc(C2NC(=O)C(C#N)=C(Nc3cccc(C)c3)S2)ccc1O` (stereo not shown) it is 18.5%. For `O=C1NN=C(c2ccc(Br)cc2)CC1c1ccc(Cl)cc1` (stereo not shown) the value was 15.9%; for `Nc1nc(Nc2ccccc2F)nc(N2CCCC2)c1[N+](=O)[O-]`, 12.1%. Regarding `COCCn1cc(C(=O)N2CCN(C)CC2)c2c3ccccc3n(C)c2c1=O`, the “hERG current change (%, negative = inhibition) at 1uM” value was 6.81%. The figure for `COc1ccccc1NC(=O)NCC1(N(C)C)CCCCC1` is 12%; for `CCn1cc(C(=O)NCc2cccs2)c(=O)c2ccc(C)nc21` it is 19.4%. For `CCCCNC(=S)N/N=C1\C(=O)c2cccc3cccc1c23` the value was 1.84%; for `COc1ccc(C(C#N)Nc2ccccc2C)cc1` (stereo not shown), -6.57%; for `O=C(CN1CCc2ccccc21)NC(=O)NC1CCCCC1`, 6.61%. For the compound `Cc1c(C(=O)OCC(=O)Nc2ccc(N3CCOCC3)cc2)oc2ccccc12`, the “hERG current change (%, negative = inhibition) at 1uM” value stood at 12%.

With `O=C(c1ccc([N+](=O)[O-])cc1)N1CCN(C(=O)c2cccnc2)CC1`, the “hERG current change (%, negative = inhibition) at 1uM” value was found to be 12.8%. `O=[N+]([O-])c1ccccc1/C=C/C=N/Nc1nc(N2CCCCC2)nc(N2CCCCC2)n1`: the “hERG current change (%, negative = inhibition) at 1uM” value was -24.9%. The figure for `COc1ccc(-c2c(-c3ccccc3)c(C(=O)C(=O)NCCCN(C)C)n3ccc4cc(OC)c(OC)cc4c23)cc1OC` is 15.2%. For `C/C(=N\NC(=O)c1ccccc1C)c1ccc(NC(=O)c2cccs2)cc1`, the “hERG current change (%, negative = inhibition) at 1uM” value was 3.27%. Regarding `CCNC(=S)N1CCC(C(=O)c2ccc3c(c2)OCCO3)CC1`, the “hERG current change (%, negative = inhibition) at 1uM” value is reported as 8.22%.

With `Cc1cccc(NC(=O)C2CCCN(S(=O)(=O)c3cccs3)C2)c1C` (stereo not shown), the “hERG current change (%, negative = inhibition) at 1uM” value was found to be 10.7%. Consider `CCOC(=O)COC(=O)c1ccc(Oc2cc(C)nc(SC)n2)cc1`, for which the “hERG current change (%, negative = inhibition) at 1uM” value is recorded as -2.55%. Consider `C=CCNC(=O)C12CCC(C)(C(=O)C1Br)C2(C)C` (stereo not shown), for which the “hERG current change (%, negative = inhibition) at 1uM” value was 19.6%. The figure for `O=C(Nc1oc2ccccc2c(=O)c1-c1ccc(Br)cc1)c1ccco1` is 2.63%. For `CCC(=O)Nc1cc(C(=O)O)ccc1Sc1ccc(Cl)cc1` the value was -11.7%; for `CS(=O)(=O)N1CCN(CC2CC3C=CC2C3)CC1.O=C(O)C(=O)O` (stereo not shown), 3.8%; for `O=C(Oc1cc(-c2ccccc2)no1)c1ccc(F)cc1`, -5%. `O=C(Nc1ccc(NC(=O)C2CC2)nc1)c1cccs1`: the “hERG current change (%, negative = inhibition) at 1uM” value stood at 14.4%. The figure for `Cn1cc(C(=O)c2ccc(Cl)cc2Cl)cc1C(=O)N/N=C(\N)COc1ccccc1` is 11.9%. The figure for `COC(=O)c1[nH]c2ccc(F)cc2c1NC(=O)C1=COCCO1` is -2.73%; for `CC(=O)CC(=O)Nc1ccc(Nc2ccccc2)cc1` it is 6.47%. Take `Cn1c(NCc2ccco2)nc2c1c(=O)n(Cc1ccc(Br)cc1)c(=O)n2C`: the “hERG current change (%, negative = inhibition) at 1uM” value worked out at 7.54%. Regarding `Cc1nn(C)c(Cl)c1C(=O)NC(C(=O)O)c1ccccc1` (stereo not shown), the “hERG current change (%, negative = inhibition) at 1uM” value is on record as 7.73%. With `COCCCNC(=O)c1ccc2c(=O)n(Cc3ccc(OC)cc3)c(=O)[nH]c2c1`, the “hERG current change (%, negative = inhibition) at 1uM” value is on record as 6.77%.

Consider `CCOc1cccc(SCc2noc(C(=O)NCCOC)c2C(=O)O)c1`, for which the “hERG current change (%, negative = inhibition) at 1uM” value was 8.41%.

Take `CCOc1ccc(S(=O)(=O)NCCC(=O)OCC(=O)c2ccc(NC(C)=O)cc2)cc1`: the “hERG current change (%, negative = inhibition) at 1uM” value is reported as 14.1%. The figure for `N#Cc1nc(COc2cccc(Cl)c2)oc1NCc1ccco1` is -1.39%; for `O=C(O)CSc1nc(-c2ccccc2)nc2c1CCCC2` it is 10.2%; for `COc1ccc(C2c3[nH]c4ccccc4c3CCN2C(=O)c2cc3ncccn3n2)c(F)c1` (stereo not shown) it is 13.5%. For `c1ccc(CN(Cc2ccccc2)c2c3c(nc4ncnn24)CCC3)cc1` the value was -5.54%.
